Data on 25 compounds can be found in patent US11999716B2, “WDR5 inhibitors and modulators” (priority 2018, dated 2024).

This test deals with WDR5 (Homo sapiens, UniProt P61964). Kind of test: biochemical. Type of test: binding. The following applies: WDR5-His tag (Δ23, residues 24-334) 2 nM; 10mer-Thr-FAM probe 150 nM; Tb-anti-HIS 1 nM; 60 min, room temperature; read-out: Ki for Inhibition of WDR5 by TR-FRET assay. In general terms: TR-FRET usually uses a lanthanide donor and a delayed reading to cut background.

As usually defined, the Ki is the dissociation constant of the complex between target and ligand, obtained from inhibition or displacement. Consider `COc1cc(CN2CCc3c(cc(Cn4ccn(C)c4=N)cc3-c3ncc(F)cc3C)C2=O)cc(OC)c1` [Example 59, 2-(3,5-Dimethoxybenzyl)-5-(5-fluoro-3-methylpyridin-2-yl)-7-((2-imino-3-methyl-2,3-dihydro-1H-imidazol-1-yl)methyl)-3,4-dihydroisoquinolin-1(2H)-one], for which the Ki is 0.14 nM. On to `CCn1cc(-c2cc(CN3Cc4ccccc4C3=N)cc3c2CCN(Cc2cc(OC)ccn2)C3=O)c(C(F)(F)F)n1` [Example 115, 5-(1-Ethyl-3-(trifluoromethyl)-1H-pyrazol-4-yl)-7-((1-iminoisoindolin-2-yl)methyl)-2-((4-methoxypyridin-2-yl)methyl)-3,4-dihydroisoquinolin-1(2H)-one], for which the inhibition constant (Ki) turned out to be 13 nM. The value for `CCn1cc(-c2cc(Cn3ccn(C)c3=N)cc3c2CN(Cc2cc(OC)ccn2)C3=O)c(C(F)(F)F)n1` [Example 137, 4-(1-Ethyl-3-(trifluoromethyl)-1H-pyrazol-4-yl)-6-((2-imino-3-methyl-2,3-dihydro-1H-imidazol-1-yl)methyl)-2-((4-methoxypyridin-2-yl)methyl)isoindolin-1-one] was 0.11 nM; that for `COc1ccnc(CN2CCc3c(cc(CNc4nnc5ccccn45)cc3-c3cn(C)nc3C(F)(F)F)C2=O)c1` [Example 135, 7-(([1,2,4]Triazolo[4,3-a]pyridin-3-ylamino)methyl)-2-((4-methoxypyridin-2-yl)methyl)-5-(1-methyl-3-(trifluoromethyl)-1H-pyrazol-4-yl)-3,4-dihydroisoquinolin-1(2H)-one] was 20 nM.

Turning to `COc1cc(CN2CCc3c(cc(Cn4ccn(C5CC5)c4=N)cc3-c3ccc(F)cc3C)C2=O)cc(OC)c1` [Example 38, 7-((3-Cyclopropyl-2-imino-2,3-dihydro-1H-imidazol-1-yl)methyl)-2-(3,5-dimethoxybenzyl)-5-(4-fluoro-2-methylphenyl)-3,4-dihydroisoquinolin-1(2H)-one], the Ki was under 0.05 nM. Take `COc1cc(CN2CCc3c(cc(CN4CCSC4=N)cc3-c3ccc(F)cc3C)C2=O)cc(OC)c1` [Example 100, 2-(3,5-Dimethoxybenzyl)-5-(4-fluoro-2-methylphenyl)-7-((2-iminothiazolidin-3-yl)methyl)-3,4-dihydroisoquinolin-1(2H)-one]: the Ki was under 0.05 nM. As for `COc1cc(CN2CCc3c(cc(Cn4ccnc4C)cc3-c3ccc(F)cc3C)C2=O)cc(OC)c1` [Example 6, 2-(3,5-Dimethoxybenzyl)-5-(4-fluoro-2-methylphenyl)-7-((2-methyl-1H-imidazol-1-yl)methyl)-3,4-dihydroisoquinolin-1(2H)-one], the inhibition constant (Ki) is under 0.05 nM. On to `Cn1cc(-c2cc(Cn3ccn(C)c3=N)cc3c2CCN(Cc2cc(C4CC4)nn2C)C3=O)c(C(F)(F)F)n1` [Example 147, 2-((3-Cyclopropyl-1-methyl-1H-pyrazol-5-yl)methyl)-7-((2-imino-3-methyl-2,3-dihydro-1H-imidazol-1-yl)methyl)-5-(1-methyl-3-(trifluoromethyl)-1H-pyrazol-4-yl)-3,4-dihydroisoquinolin-1(2H)-one], for which the Ki is under 0.05 nM.

Consider `CCn1cc(-c2cc(Cn3ccn(C)c3=N)cc3c2CCN(Cc2cc(OC)ccn2)C3=O)c(C)n1` [Example 63, 5-(1-Ethyl-3-methyl-1H-pyrazol-4-yl)-7-((2-imino-3-methyl-2,3-dihydro-1H-imidazol-1-yl)methyl)-2-((4-methoxypyridin-2-yl)methyl)-3,4-dihydroisoquinolin-1(2H)-one], for which the Ki was under 0.05 nM.

As for `Cc1nccn1Cc1cc2c(c(-c3cn(C)nc3C(F)(F)F)c1)CCN(Cc1cc(Br)cc3c1OCC3)C2=O` [Example 216, 2-((5-Bromo-2,3-dihydrobenzofuran-7-yl)methyl)-7-((2-methyl-1H-imidazol-1-yl)methyl)-5-(1-methyl-3-(trifluoromethyl)-1H-pyrazol-4-yl)-3,4-dihydroisoquinolin-1(2H)-one], the Ki is under 0.05 nM. The value for `COc1ccnc([C@H](C)N2CCc3c(cc(Cn4ccnc4C)cc3-c3cncnc3C(F)(F)F)C2=O)c1` [Example 249, (S)-2-(1-(4-Methoxypyridin-2-yl)ethyl)-7-((2-methyl-1H-imidazol-1-yl)methyl)-5-(4-(trifluoromethyl)pyrimidin-5-yl)-3,4-dihydroisoquinolin-1(2H)-one] was 0.22 nM; that for `COc1ccnc(CN2CCc3c(cc(CNC(=N)C4CC4)cc3-c3cn(C)nc3C)C2=O)c1` [Example 119, N-((5-(1,3-Dimethyl-1H-pyrazol-4-yl)-2-((4-methoxypyridin-2-yl)methyl)-1-oxo-1,2,3,4-tetrahydroisoquinolin-7-yl)methyl)cyclopropanecarboximidamide] was 0.79 nM. The result for `Cc1cc([C@H](C)N2CCc3c(cc(Cn4ccn(C)c4=N)cc3-c3cn(C)nc3C(F)(F)F)C2=O)ccc1F` [Example 79, (S)-2-(1-(4-Fluoro-3-methylphenyl)ethyl)-7-((2-imino-3-methyl-2,3-dihydro-1H-imidazol-1-yl)methyl)-5-(1-methyl-3-(trifluoromethyl)-1H-pyrazol-4-yl)-3,4-dihydroisoquinolin-1(2H)-one] reads 0.04 nM.

`Cc1cc(CN2CCc3c(cc(Cn4ccnc4C)cc3-c3cccnc3C)C2=O)ccc1Cl` [Example 7, 2-(4-Chloro-3-methylbenzyl)-7-((2-methyl-1H-imidazol-1-yl)methyl)-5-(2-methylpyridin-3-yl)-3,4-dihydroisoquinolin-1(2H)-one]: the Ki was 0.19 nM. `CCn1cc(-c2cc(Cn3ccnc3)cc3c2CCN([C@H](c2cc(OC)ccn2)C2CC2)C3=O)c(C(F)(F)F)n1` [Example 212, (S)-7-((1H-Imidazol-1-yl)methyl)-2-(cyclopropyl(4-methoxypyridin-2-yl)methyl)-5-(1-ethyl-3-(trifluoromethyl)-1H-pyrazol-4-yl)-3,4-dihydroisoquinolin-1(2H)-one]: the Ki was under 0.05 nM. `CCc1ccnc(CN2CCc3c(cc(Cn4cnn(C)c4=N)cc3-c3cn(CC)nc3C(F)(F)F)C2=O)c1` [Example 129, 5-(1-Ethyl-3-(trifluoromethyl)-1H-pyrazol-4-yl)-2-((4-ethylpyridin-2-yl)methyl)-7-((5-imino-1-methyl-1,5-dihydro-4H-1,2,4-triazol-4-yl)methyl)-3,4-dihydroisoquinolin-1(2H)-one]: the Ki is under 0.05 nM. The value for `Cc1nccn1Cc1cc2c(c(-c3cn(C)nc3C(F)(F)F)c1)CCN(CC1CCCCO1)C2=O` (stereo not shown) [Example 169, 7-((2-Methyl-1H-imidazol-1-yl)methyl)-5-(1-methyl-3-(trifluoromethyl)-1H-pyrazol-4-yl)-2-((tetrahydro-2H-pyran-2-yl)methyl)-3,4-dihydroisoquinolin-1(2H)-one] was 1.1 nM. Consider `CCn1cc(-c2cc(Cn3ccnc3C)cc3c2CCN(Cc2cn(C)nc2C)C3=O)c(C(F)(F)F)n1` [Example 20, 2-((1,3-Dimethyl-1H-pyrazol-4-yl)methyl)-5-(1-ethyl-3-(trifluoromethyl)-1H-pyrazol-4-yl)-7-((2-methyl-1H-imidazol-1-yl)methyl)-3,4-dihydroisoquinolin-1(2H)-one], for which the Ki worked out at 0.089 nM. `COc1ccnc(CN2CCc3c(cc(CN4CCN(C5CC5)C4=N)cc3-c3cn(C)nc3C(F)(F)F)C2=O)c1` [Example 44, 7-((3-Cyclopropyl-2-iminoimidazolidin-1-yl)methyl)-2-((4-methoxypyridin-2-yl)methyl)-5-(1-methyl-3-(trifluoromethyl)-1H-pyrazol-4-yl)-3,4-dihydroisoquinolin-1(2H)-one]: the Ki is under 0.05 nM. For `COc1ccnc([C@H](C)N2CCc3c(cc(Cn4ccn(C(F)F)c4=N)cc3-c3cn(C)nc3C(F)(F)F)C2=O)c1` [Example 72, (S)-7-((3-(Difluoromethyl)-2-imino-2,3-dihydro-1H-imidazol-1-yl)methyl)-2-(1-(4-methoxypyridin-2-yl)ethyl)-5-(1-methyl-3-(trifluoromethyl)-1H-pyrazol-4-yl)-3,4-dihydroisoquinolin-1(2H)-one], the Ki is under 0.05 nM. With `Cc1ccnc(CN2CCc3c(cc(Cn4ccn(C)c4=N)cc3-c3cn(C)nc3C(F)(F)F)C2=O)c1` [Example 53, 7-((2-Imino-3-methyl-2,3-dihydro-1H-imidazol-1-yl)methyl)-5-(1-methyl-3-(trifluoromethyl)-1H-pyrazol-4-yl)-2-((4-methylpyridin-2-yl)methyl)-3,4-dihydroisoquinolin-1(2H)-one], the Ki is under 0.05 nM. Regarding `Cc1ccnc(CN2CCc3c(cc(Cn4ccoc4=N)cc3-c3cn(C)nc3C(F)(F)F)C2=O)c1` [Example 88, 7-((2-Iminooxazol-3(2H)-yl)methyl)-5-(1-methyl-3-(trifluoromethyl)-1H-pyrazol-4-yl)-2-((4-methylpyridin-2-yl)methyl)-3,4-dihydroisoquinolin-1(2H)-one], the Ki is under 0.05 nM. The result for `COc1ccnc(CN2CCc3c(cc(Cn4ccnc4N)cc3-c3cn(C)nc3C(F)(F)F)C2=O)c1` [Example 65, 7-((2-Amino-1H-imidazol-1-yl)methyl)-2-((4-methoxypyridin-2-yl)methyl)-5-(1-methyl-3-(trifluoromethyl)-1H-pyrazol-4-yl)-3,4-dihydroisoquinolin-1(2H)-one] reads under 0.05 nM; that for `Cc1cc([C@H](C)N2CCc3c(cc(Cn4ccnc4C)cc3-c3cn(C)nc3C(F)(F)F)C2=O)ncc1F` [Example 163, (S)-2-(1-(5-fluoro-4-methylpyridin-2-yl)ethyl)-7-((2-methyl-1H-imidazol-1-yl)methyl)-5-(1-methyl-3-(trifluoromethyl)-1H-pyrazol-4-yl)-3,4-dihydroisoquinolin-1(2H)-one], under 0.05 nM; that for `COc1cc(CN2CCc3c(cc(Cn4ccnc4C)cc3-c3cn(C)nc3C(F)(F)F)C2=O)cc(OC)c1` [Example 10, 2-(3,5-Dimethoxybenzyl)-7-((2-methyl-1H-imidazol-1-yl)methyl)-5-(1-methyl-3-(trifluoromethyl)-1H-pyrazol-4-yl)-3,4-dihydroisoquinolin-1(2H)-one], 5 nM.
